Whole data set: some 33,000 sequences, median “E-score (-0.5 to 0.5)” near -0.041, cut for the highest 2% near 0.37. Some of the results follow.
biological target: T1, Ecm22 (UniProt Q05958); assay: PBM E-score (8-mer binding enrichment) (E-score (-0.5 to 0.5)); higher = stronger / more preferred TF binding; most listed sequences are background and not binding sites; settings: protein concentration: 200 nM; construct: GST-full length
T1 sequence: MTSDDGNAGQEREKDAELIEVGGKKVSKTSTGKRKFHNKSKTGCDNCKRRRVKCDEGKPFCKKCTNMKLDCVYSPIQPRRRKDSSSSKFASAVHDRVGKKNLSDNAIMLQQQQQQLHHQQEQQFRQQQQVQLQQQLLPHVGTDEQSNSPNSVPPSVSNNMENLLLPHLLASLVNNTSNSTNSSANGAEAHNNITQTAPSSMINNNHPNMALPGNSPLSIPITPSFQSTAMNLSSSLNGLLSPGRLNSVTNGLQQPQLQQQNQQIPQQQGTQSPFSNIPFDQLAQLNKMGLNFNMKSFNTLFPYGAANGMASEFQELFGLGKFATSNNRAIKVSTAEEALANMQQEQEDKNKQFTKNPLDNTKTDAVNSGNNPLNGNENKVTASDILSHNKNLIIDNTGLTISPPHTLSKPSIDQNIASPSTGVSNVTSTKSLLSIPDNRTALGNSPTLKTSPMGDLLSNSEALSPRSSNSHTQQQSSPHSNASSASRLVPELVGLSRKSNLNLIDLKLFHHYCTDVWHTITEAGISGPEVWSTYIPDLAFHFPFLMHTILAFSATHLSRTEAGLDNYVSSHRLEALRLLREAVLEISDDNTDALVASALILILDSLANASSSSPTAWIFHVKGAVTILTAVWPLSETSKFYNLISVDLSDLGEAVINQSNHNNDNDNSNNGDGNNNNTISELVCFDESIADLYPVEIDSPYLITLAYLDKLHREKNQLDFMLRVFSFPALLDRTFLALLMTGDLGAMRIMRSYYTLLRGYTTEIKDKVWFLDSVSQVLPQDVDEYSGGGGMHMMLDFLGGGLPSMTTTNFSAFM
Summary of the method: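 The E-score, a modified Wilcoxon-Mann-Whitney statistic, was computed by the Universal PBM Analysis Suite for every ungapped eight-base word pooled with its reverse complement. Scans behind it were normalised with masliner after bound GST-tagged yeast transcription factors were detected with fluorescent anti-GST. The proteins, at about 100-200 nM, had been applied to universal all-10-mer Agilent arrays made double-stranded by primer extension.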

Row | Sequence | PBM E-score
1 | CATAGATC | -0.186
2 | GAGCGGTA | 0.117
3 | CTTCGTCC | -0.243
4 | ACAAAAGA | 0.159
5 | ATGGGTAC | 0.0792
6 | TAAAGCGA | 0.213
7 | AGTTTAGG | -0.245
8 | AACCATCT | -0.106
9 | CACGATGC | 0.136
10 | TCTTGTCA | -0.211
11 | TAAATTTA | 0.232
12 | CGATAATA | 0.0859
13 | GATCACTA | 0.1
14 | AACGTCCG | 0.0477
15 | CGTCCGTC | -0.115
16 | AGTCCGCA | -0.0943
17 | CTTCGACC | -0.131
18 | AATTTGCC | -0.212
19 | ATACCAAT | -0.00609
20 | GATTAGCC | 0.0338
21 | CAATGCCG | -0.191
22 | AAATACGG | 0.265
23 | TATTCTCA | -0.146
24 | CCCTAGTC | -0.295
25 | AGGCTCTC | -0.162

Row | Sequence | PBM E-score
26 | CCACCGTA | 0.34
27 | CTGACGCA | -0.319
28 | GAAGGCTC | -0.174
29 | ATAAGAAC | 0.0216
30 | CACATGAA | -0.0421
31 | TCTTCGAA | 0.108
32 | CTAAGAAC | -0.00855
33 | ATCAGCGG | 0.00773
34 | AACTTATA | 0.199
35 | ACGAGTAG | 0.38
36 | CAGCACGG | -0.184
37 | GCAGTGAA | 0.0776
38 | AACGGTGT | 0.247
39 | CAGTACTC | -0.142
40 | CACACATA | -0.177
41 | CCGTGACC | -0.312
42 | CTGTGCAA | -0.132
43 | CCTGAGCG | -0.00786
44 | TACGTCAA | -0.00876
45 | AACCCAGA | -0.196
46 | ACCATTAA | 0.0643
47 | ATTCCTTA | -0.079
48 | AACTAATG | -0.0283
49 | CCACTATC | -0.0843
50 | GTTTGCTA | -0.032

Row | Sequence | PBM E-score
51 | GTAACATA | 0.0905
52 | GTATGACA | 0.0872
53 | ATGAGAGC | -0.157
54 | ATCATTGA | 0.058
55 | CTTCCGCC | -0.242
56 | GAACTTAA | 0.0461
57 | TTAACGAA | 0.411
58 | AGGCACGC | -0.216
59 | CATAGTAC | 0.044
60 | GAACCCTC | -0.0601
61 | GGTTCCGA | -0.00514
62 | CTTGTAGA | -0.204
63 | CAGTTTCA | -0.261
64 | CGTCTATC | 0.0638
65 | CGAACTAG | 0.0807
66 | GTACCCAC | 0.0838
67 | ATCACCAA | -0.0324
68 | CCCGGACG | -0.147
69 | AGACCGCC | -0.214
70 | CCCAGAGG | -0.261
71 | CGCATTTA | 0.0806
72 | ATCCCACC | -0.192
73 | TTCCGCAA | 0.0876
74 | AGGCGCAA | -0.0168
75 | ATCCGAAG | 0.235

Row | Sequence | PBM E-score
76 | ATATCCCG | 0.0712
77 | CTCAGATA | 0.0426
78 | AACTTCGA | 0.043
79 | AATAACAT | 0.111
80 | AGAACGTG | -0.0515
81 | CAGGCGCA | -0.24
82 | AAGTATGT | -0.206
83 | CTTATTGC | -0.183
84 | TTGCGCAA | -0.061
85 | TAGGCGGA | -0.0412
86 | AGCAGTGC | -0.187
87 | CGGTGGGC | -0.177
88 | CAACCTTG | -0.22
89 | AATTTACT | -0.0675
90 | ACATCGAC | 0.00478
91 | TAGGGTCA | -0.127
92 | GTCCTACA | -0.0351
93 | GGACGTTA | -0.153
94 | ACTTGATC | -0.226
95 | AGCATAAG | -0.165
96 | ATCACATC | -0.158
97 | AATCTGTA | -0.096
98 | GGTATCCA | 0.0334
99 | AAACATCT | -0.145
100 | ACATCCTG | -0.0643

Row | Sequence | PBM E-score
101 | AACTAGCA | -0.117
102 | GTTGGTCA | -0.0128
103 | AGTAATCG | 0.118
104 | AGACTGCT | -0.156
105 | AGATCTGC | -0.0769
106 | GCGTTCCC | 0.104
107 | ACCATCAC | -0.00767
108 | GCGAACTA | 0.114
109 | AGCATTGC | 0.0233
110 | ACGTTTCA | 0.107
111 | CGGCAAAG | -0.0018
112 | GGGTACAA | -0.0303
113 | CGACCGGC | 0.0856
114 | AGCCTGTA | -0.124
115 | GCGTAAGA | 0.074
116 | AGACGTGC | -0.112
117 | AACGGAGG | 0.193
118 | AAAATCCA | 0.0311
119 | AATAGGCG | -0.0977
120 | GACTACCC | -0.191
121 | CGCCTACC | -0.0639
122 | AACTCTGT | -0.0778
123 | AAAGGCCC | -0.162
124 | AGCATTCA | -0.166
125 | GATGCATC | -0.0161

Row | Sequence | PBM E-score
126 | ATCCATAA | 0.136
127 | ACGGTAAT | 0.112
128 | AGTGATTC | -0.0577
129 | ACATCAGA | -0.0455
130 | AACCTGGC | -0.111
131 | CAGTGAAG | -0.346
132 | CCCCTGGC | -0.188
133 | CGAGATGA | 0.278
134 | ATCTTGGG | -0.307
135 | GGTCACAA | -0.0338
136 | GTAGAGTA | 0.0847
137 | GTCCCAAC | -0.211
138 | GACTAATC | 0.0236
139 | CAAGGTGC | -0.235
140 | ACTAATTC | 0.093
141 | ACCGAATG | 0.141
142 | GCAACACA | -0.135
143 | AACCATGT | -0.0313
144 | AAACGCCG | 0.125
145 | AGTCTAAC | -0.051
146 | ACCTCTGA | -0.0962
147 | GAGAGGGC | -0.21
148 | CAACGGGG | -0.0303
149 | CCGTCAAG | -0.24
150 | AACAATAA | -0.0759

Row | Sequence | PBM E-score
151 | ATCACCAT | -0.0473
152 | CCCAAGGA | -0.332
153 | CTCGCCAC | 0.127
154 | CATTTAAC | 0.0224
155 | GTATCGAC | 0.165
156 | ATTCACCG | 0.0196
157 | AATATAGT | 0.0291
158 | ATAATTGG | -0.0494
159 | ATATGAAA | 0.0588
160 | TATCAGAA | 0.0643
161 | CTGCAGTC | -0.0621
162 | TCCGACCA | 0.16
163 | AGACTATG | -0.107
164 | ATAACCGG | -0.00256
165 | ATGAGTTC | -0.137
166 | GTATTATA | 0.172
167 | AAAAAAAT | -0.0221
168 | TGGTAACA | 0.058
169 | GAAAACGA | 0.306
170 | CTCAGAGC | -0.311
171 | AGAGTAGC | -0.226
172 | AAATTACC | 0.103
173 | GAGAAAAC | -0.0401
174 | ACAAGGCG | -0.0883
175 | TCGCGCAA | 0.195

Row | Sequence | PBM E-score
176 | TTAAATAA | -0.0529
177 | CGTGGAGC | 0.0308
178 | CAGGAATG | -0.269
179 | ATCCGTAA | 0.262
180 | CGCGCCTA | 0.213
181 | GAGCAGAA | 0.0227
182 | ACTTGGAT | 0.0163
183 | GGATAGGA | 0.0428
184 | TGAGTAAA | -0.13
185 | AACTCGGG | 0.116
186 | ACCCGCGA | -0.0189
187 | AGATGTCG | 0.178
188 | GGCAACCC | -0.243
189 | CATGGTCG | 0.101
190 | CCTAAGAC | -0.157
191 | AGGCGGCA | -0.33
192 | CAACACTA | -0.0848
193 | AACACATT | 0.00652
194 | AGTTGTCG | 0.0741
195 | ACTATGCT | 0.0226
196 | GAAATGGA | -0.147
197 | AAGTACAG | -0.254
198 | AGTTGATG | 0.00744
199 | CCTGGGTC | -0.281
200 | AATCGTTC | 0.426

Row | Sequence | PBM E-score
201 | ATCTGAAG | -0.253
202 | AAATTGCT | -0.0414
203 | CGCAGCAA | -0.0983
204 | ACCCACAC | -0.0347
205 | ATCCCAAG | -0.291
206 | GGGCGCTA | -0.225
207 | ATCTTATC | 0.0565
208 | CGTCCAAG | -0.249
209 | TGTCTAAA | 0.0287
210 | CATAGATG | -0.127
211 | GGAGAGCA | -0.131
212 | GAGGGCGC | -0.127
213 | GACGCAGA | 0.164
214 | GAGTTAAA | -0.0938
215 | GGAAGGAC | -0.178
216 | GGGACTAC | -0.169
217 | CTGATTAA | 0.0488
218 | CTTTTCAC | -0.169
219 | CTTGGTAC | 0.226

— the supplement of paper PMC3334620
